{"source": "PubChem BioAssay AID485344", "about": "(National Center for Advancing Translational Sciences (NCATS), 2010)", "note": "The whole screen tested about 340,000 compounds, of which about 6,900 (2%) were called active. Rule as the data show it: active = inhibition above about 30%; inactive = below that, where a call was filed. This is a selection; strong and weak results do not stand in their true shares. The source gives no active or inactive call for entries shown without one. The source holds several records for some structures; these can differ, active in one and inactive in another.", "data": [{"target": "D(2) dopamine receptor (Homo sapiens) (UniProt P14416)", "sequence (P14416 whole entry, looked up)": "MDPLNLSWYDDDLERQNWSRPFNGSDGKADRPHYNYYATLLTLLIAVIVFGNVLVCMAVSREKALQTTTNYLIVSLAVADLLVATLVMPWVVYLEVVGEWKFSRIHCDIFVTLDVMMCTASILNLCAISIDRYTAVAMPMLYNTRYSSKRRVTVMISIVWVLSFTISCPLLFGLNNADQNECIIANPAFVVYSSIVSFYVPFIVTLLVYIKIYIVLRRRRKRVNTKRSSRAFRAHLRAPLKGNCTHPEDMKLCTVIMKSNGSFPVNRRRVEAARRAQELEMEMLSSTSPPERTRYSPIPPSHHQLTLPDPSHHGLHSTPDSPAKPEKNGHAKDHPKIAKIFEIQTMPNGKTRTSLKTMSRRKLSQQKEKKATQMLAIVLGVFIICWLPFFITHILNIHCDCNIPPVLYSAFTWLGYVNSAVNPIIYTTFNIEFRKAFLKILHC", "assay": "HTS Assay for Allosteric Antagonists of the Human D2 Dopamine Receptor: Primary Screen for Antagonists; also: 0% is about no effect", "settings": "HEK293 TREx D2 cells, calcium flux, dopamine EC80; at 10 µM; stronger effect = higher value", "outline": "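Cells plated overnight at 30 C with tetracycline; no-wash calcium dye, 30–90 min RT; 10 s baseline; compound pinned; 180 s read; EC80 dopamine added; another 180 s read.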", "values": [{"smiles": "Cc1oc(-c2ccc(C(=O)NCCCOC(C)C)cc2)nc1CS(=O)(=O)c1ccccc1", "inhibition": "4.06%"}, {"smiles": "COc1ccc(C(=O)NCc2ccc3c(c2)CCN3C(C)=O)cc1OC", "inhibition": "-16.2%"}, {"smiles": "CCn1ccc2cc(S(=O)(=O)N3CCCN(C(=O)Nc4ccc(C)cc4Cl)CC3)ccc21", "inhibition": "-26.6%"}, {"smiles": "COc1cc2c(cc1OC)n(CC(=O)Nc1ccc(C)cc1C)c(=O)n1nc(-c3ccccc3)nc21", "inhibition": "4.23%"}, {"smiles": "Cn1c(=O)n(Cc2ccccc2Cl)c(=O)c2c1nc1n2CCN1c1ccccc1", "inhibition": "18.1%"}, {"smiles": "Cc1ccc(C(=O)COC(=O)CCCC(=O)Nc2cc(C(F)(F)F)ccc2Cl)cc1C", "inhibition": "-7.85%"}, {"smiles": "Cc1c(Cl)cccc1NC(=O)CSc1nc(=O)n(Cc2ccncc2)c2c1CCC2", "inhibition": "-26.3%"}, {"smiles": "CCc1nn(CCCN2CCN(c3cccc(Cl)c3)CC2)c(=O)n1CCOc1ccccc1", "inhibition": "active: 47%"}, {"smiles": "CC(C)Cc1nn2c(=O)cc(COC(=O)c3cccc(NC(=O)c4cccs4)c3)nc2s1", "inhibition": "5.16%"}, {"smiles": "COc1ccc(-c2nsc(NC(=O)COc3ccccc3OC)n2)cc1", "inhibition": "-6.96%"}, {"smiles": "O=C(c1ccc(=O)[nH]c1)N(Cc1ccco1)C1(C(=O)NC2CCCCC2)CCCCC1", "inhibition": "active: 37.6%"}, {"smiles": "CCC1=C(OC(=O)N(CC)CC)N2C(=O)OC(=NCC(=O)OC)[C@]2(Cc2ccccc2)[C@H]2C1=CC[C@H]1C(=O)NC(=O)[C@H]12", "inhibition": "active: 53.2%"}, {"smiles": "COc1ccccc1CNC(=O)CCCn1c(=O)c2ccccc2n(CC(=O)Nc2ccc(C)cc2Cl)c1=O", "inhibition": "5.38%"}, {"smiles": "COc1ccc(NC(=O)Cn2c(=O)n(Cc3nc(C)no3)c(=O)c3cc4c(cc32)OCO4)cc1", "inhibition": "-4.68%"}, {"smiles": "COc1ccc(NC(=O)c2cc3c(=O)n(Cc4cccs4)ccc3nc2C)c(OC)c1", "inhibition": "11.5%"}, {"smiles": "Cc1cc(C)cc(NS(=O)(=O)c2ccc(-c3cc(C)no3)s2)c1", "inhibition": "6.54%"}, {"smiles": "Cc1cc(C)c(NC(=O)C2CCN(C(=O)N3CC(C)Oc4ccc(Cl)cc43)CC2)c(C)c1", "note": "(stereo not drawn)", "inhibition": "-22.2%"}, {"smiles": "Cc1ccc(-c2nc3cc(Cl)ccc3o2)cc1NC(=O)c1cc2ccccc2o1", "inhibition": "-6.22%"}, {"smiles": "Cc1c(C(=O)N(C)C)sc2c1c(=O)n(-c1ccccc1C(F)(F)F)c(=O)n2Cc1ccccc1C#N", "inhibition": "6.85%"}, {"smiles": "CCOC(=O)c1ccc(NC(=O)C2=C(C)C(=O)OC23CCCCCC3)cc1", "inhibition": "-26.1%"}, {"smiles": "Cc1cc(-c2ccc(S(=O)(=O)Nc3cccc(C(F)(F)F)c3)s2)on1", "inhibition": "-4.77%"}, {"smiles": "CC(C)Sc1ncc(Cl)c(C(=O)Nc2nc3ccc(S(C)(=O)=O)cc3s2)n1", "inhibition": "-26.9%"}, {"smiles": "O=C(c1ccccc1Cl)N1CCCC(c2nc3c(nnn3Cc3ccc(F)cc3F)c(=O)[nH]2)C1", "note": "(stereo not drawn)", "inhibition": "17.6%"}, {"smiles": "CN(C(=O)CSc1nc2ccc(NC(=O)COc3ccc(F)cc3)cc2s1)c1ccccc1", "inhibition": "-7.08%"}, {"smiles": "CCOC(=O)c1c(C)[nH]c(C)c1S(=O)(=O)N(C)CC(=O)Nc1cccc(Cl)c1C", "inhibition": "6.47%"}, {"smiles": "Cc1c(Cl)cccc1NC(=O)c1cc(-c2cccs2)on1", "inhibition": "6.16%"}, {"smiles": "Cc1c(C(=O)N2CCC(C)CC2)c(S(=O)(=O)Nc2cccc(C#N)c2)c(C)n1C", "inhibition": "-8.81%"}, {"smiles": "Cc1ccc(NCc2cccn2-c2nnc(N3CCC(C(=O)NCc4ccccc4C)CC3)s2)cc1", "inhibition": "9.73%"}, {"smiles": "COc1ccc(CN2CCCN(CC(=O)Nc3ccc(Br)cc3F)S2(=O)=O)cc1", "inhibition": "7%"}, {"smiles": "Cc1ccc(-n2ncc(C(=O)NCc3ccc4c(c3)OCO4)c2C2CCN(C(=O)OC(C)(C)C)CC2)cc1C", "inhibition": "1.12%"}, {"smiles": "COc1ccc(C(=O)N2CCCCC2CCN2CCOCC2)cc1", "note": "(stereo not drawn)", "inhibition": "2.5%"}, {"smiles": "CC1=C(c2ccc(C)c(C)c2)S(=O)(=O)N=C1N1CCN(c2cccc(C)c2)C(C)C1", "note": "(stereo not drawn)", "inhibition": "14%"}, {"smiles": "CCN(CCCNC(=O)CSc1cc(=O)n(C)c2cc(Cl)ccc12)c1ccccc1", "inhibition": "-19.2%"}, {"smiles": "CN1CCN(CCNC(=O)c2cnn(-c3cccc(Cl)c3)c2C2CCN(C(=O)OC(C)(C)C)CC2)CC1", "inhibition": "-7.05%"}, {"smiles": "Cc1cc(=O)n2nc(N3CCC(C(=O)NCc4ccccc4F)CC3)sc2n1", "inhibition": "14.7%"}, {"smiles": "COc1ccc(CN(C)c2ccc(-c3nc(C)no3)cc2[N+](=O)[O-])cc1", "inhibition": "-8.54%"}, {"smiles": "Cc1ccc(NC(=O)CSc2ncc3c(n2)-c2ccccc2N(C)S3(=O)=O)c(Cl)c1", "inhibition": "4.41%"}, {"smiles": "CCC(CC)C(=O)Nc1cccc(-c2nc3ncccn3c2C)c1", "inhibition": "-3.05%"}, {"smiles": "CCc1ccc(CNC(=O)Cn2nc(C)c3c(C)n(-c4ccc(C)cc4)nc3c2=O)cc1", "inhibition": "5.08%"}, {"smiles": "COc1cccc(-c2nn(C)c3sc(C(=O)NCc4ccc(C)cc4)cc23)c1", "inhibition": "-7.74%"}, {"smiles": "CCN(CC)C(=O)c1sc2c(c1C)c(=O)n(-c1ccc(OC)cc1OC)c(=O)n2Cc1cc(C)ccc1C", "inhibition": "11.5%"}, {"smiles": "CCOC(=O)c1c(C)n(C)c2ccc(OCC(O)CNCCc3ccccc3)cc12", "note": "(stereo not drawn)", "inhibition": "active: 30.7%"}, {"smiles": "CC(=O)N1c2ccc(S(=O)(=O)NCc3ccc(Cl)cc3)cc2CC1C", "note": "(stereo not drawn)", "inhibition": "-17.8%"}, {"smiles": "CC(=O)Nc1ccccc1OCc1cc(=O)n2c(C)csc2n1", "inhibition": "-0.857%"}, {"smiles": "Cc1ccc(-c2nc(C)c(CCNC(=O)C(=O)Nc3ccc(C)c(Cl)c3)s2)cc1", "inhibition": "-27.7%"}, {"smiles": "CCOC(=O)c1cc(S(=O)(=O)NCc2ccc(F)cc2)[nH]n1", "inhibition": "13.9%"}, {"smiles": "COCCCNC(=O)CSc1nc(-c2ccc(OC)cc2)[nH]c1-c1ccc(OC)cc1", "inhibition": "-0.151%"}, {"smiles": "COc1ccc2oc(=O)cc(CN3CCN(c4ccccc4OC)CC3)c2c1", "inhibition": "3.98%"}, {"smiles": "CCOC(=O)c1c(C)[nH]c(CCC(=O)Nc2ccccc2OCC)c1C", "inhibition": "-27.6%"}, {"smiles": "CC(=O)N1CCCc2cc(S(=O)(=O)N3CCC(C(=O)NCc4ccccc4Cl)CC3)ccc21", "inhibition": "-13.7%"}, {"smiles": "COc1ccc(C(=O)Nc2cc3cc(Cl)ccc3oc2=O)cc1OC", "inhibition": "-1.63%"}, {"smiles": "Cc1nn(CCC(=O)N2CCN(c3ccccc3F)CC2)c(C)c1S(=O)(=O)N1CCCC1", "inhibition": "2.71%"}, {"smiles": "NS(=O)(=O)c1ccc(NC(=O)COC(=O)c2ccco2)cc1", "inhibition": "active: 38.5%"}, {"smiles": "CN(C)c1ccc(CNC(=O)Cn2c(=O)oc3cc(S(=O)(=O)NCc4ccccc4)ccc32)cc1", "inhibition": "-1.67%"}, {"smiles": "Cc1ccccc1NS(=O)(=O)c1ccc(C)c(NS(C)(=O)=O)c1C", "inhibition": "active: 32.8%"}, {"smiles": "CCCC12CN3CC(C)(CN(C1)C3c1cn(CC)c3ccccc13)C2=O", "note": "(stereo not drawn)", "inhibition": "1.21%"}, {"smiles": "CCN1CCN(c2cc(C)c3cc(NC(=O)c4cc(Br)ccc4Cl)ccc3n2)CC1", "inhibition": "-4.75%"}, {"smiles": "CCOc1ccccc1CNC(=O)CCCn1nc(C)c2sc3ccccc3c2c1=O", "inhibition": "12.9%"}, {"smiles": "Cc1ccc(OCc2ccc(-c3nc(C#N)c(N4CCN(c5cccc(Cl)c5)CC4)o3)o2)cc1", "inhibition": "-0.221%"}, {"smiles": "Cc1cccc(CSc2nc3ccncc3n2Cc2ccc(C(=O)O)cc2)c1", "inhibition": "-14.2%"}, {"smiles": "COc1ccccc1NC(=O)Cn1c(=O)n(CCc2ccccc2)c(=O)c2sc3ccccc3c21", "inhibition": "3.19%"}, {"smiles": "COc1cc(NC(=O)Cn2nc(C(F)(F)F)c3c2CCCC3)cc(OC)c1OC", "inhibition": "-1.02%"}, {"smiles": "Cc1cccc(OCC(=O)Nc2c(C(=O)N3CCN(c4ccccc4)CC3)oc3ccccc23)c1", "inhibition": "-8.43%"}, {"smiles": "COc1ccc(N2CCN(c3oc(-c4ccccc4C)nc3S(=O)(=O)c3ccccc3)CC2)cc1", "inhibition": "2.66%"}, {"smiles": "COc1ccc(/C=C2\\SC(N3CCc4ccccc4C3)=NC2=O)cc1OC", "inhibition": "active: 53.1%"}, {"smiles": "C=CCc1ccc(OCCCCN2CC(C)CC(C)C2)c(OC)c1", "note": "(stereo not drawn)", "inhibition": "active: 38.5%"}, {"smiles": "CCc1nc2ccccc2n1CCCCOc1ccc(Cl)cc1", "inhibition": "-14.6%"}, {"smiles": "COc1cc(NC(=O)Cn2nc(Cc3cccnc3)c3ccccc3c2=O)cc(OC)c1OC", "inhibition": "-0.388%"}, {"smiles": "CCCCN(CCCC)S(=O)(=O)c1ccc(C(=O)Nc2sc3c(c2C(N)=O)CCN(CC)C3)cc1", "inhibition": "-15.8%"}, {"smiles": "CC(C)c1ccc(C(=O)Nc2ccc(-c3nc4ccccc4s3)c(Cl)c2)cc1", "inhibition": "5.58%"}, {"smiles": "Cn1cc(S(=O)(=O)N2CCCCCC2)cc1C(=O)Nc1ccccc1F", "inhibition": "21.4%"}, {"smiles": "COc1ccc(-c2nc(Cn3c(SCc4cccc(F)c4)nc4cccnc43)c(C)o2)cc1", "inhibition": "-3.22%"}, {"smiles": "COc1cccc(C(=O)NCC(c2ccc(N(C)C)cc2)N2CCc3ccccc32)c1OC", "note": "(stereo not drawn)", "inhibition": "-20%"}, {"smiles": "Cc1cccc(C)c1NC(=O)N1CCC(C(N)=O)(N2CCCCC2)CC1", "inhibition": "-3.92%"}, {"smiles": "O=C(Nc1ccc(F)cc1F)c1cc2ccc3cccnc3c2[nH]1", "inhibition": "9.16%"}, {"smiles": "CCOC(=O)c1ccc(NC(=O)c2c(NCc3cccc(OC)c3)sc3c2CCC3)cc1", "inhibition": "9.9%"}, {"smiles": "Cc1ccccc1Nc1cc(C(=O)NC2CCC(C)CC2)c2ccccc2n1", "note": "(stereo not drawn)", "inhibition": "4.09%"}, {"smiles": "COc1cccc(NC(=O)C2CC(=O)N(Cc3ccco3)C2)c1", "note": "(stereo not drawn)", "inhibition": "active: 36.6%"}, {"smiles": "COC(=O)c1cc(OC)c(OC)c(OC)c1NC(=O)c1cc(=O)n(C)c(=O)n1C", "inhibition": "14.7%"}, {"smiles": "CCOc1ccc(NC(=O)CSc2ccc3ccccc3n2)cc1", "inhibition": "12.4%"}, {"smiles": "COCCCNC(=O)CN1C(=O)COc2ccc(S(=O)(=O)N3CCOCC3)cc21", "inhibition": "5.61%"}, {"smiles": "COC(=O)CSCc1nc(-c2ccc(C(=O)OC)cc2)oc1C", "inhibition": "-3.24%"}, {"smiles": "O=C(CCNS(=O)(=O)c1cccc2nonc12)Nc1ccc(F)cc1", "inhibition": "12.4%"}, {"smiles": "COc1ccc(N2CCN(C(=O)c3cn(C4CCCCC4)c(=O)c4c3c3ccccc3n4C)CC2)cc1", "inhibition": "-6.44%"}, {"smiles": "CCOc1ccccc1NC(=O)c1c(NC(=O)Cc2ccccc2)sc2c1CCCC2", "inhibition": "-9.42%"}, {"smiles": "Cc1cc(C)c(S(=O)(=O)Nc2ccc(-c3ccc(N4CCCCC4)nn3)cc2)c(C)c1", "inhibition": "6.02%"}, {"smiles": "Cn1cc(C(=O)N2CCN(c3cccc(Cl)c3)CC2)c(=O)c2cc(S(=O)(=O)N3CCCC3)ccc21", "inhibition": "14.4%"}, {"smiles": "COc1ccc(C)cc1NC(=O)CN1CCCN(S(=O)(=O)c2ccc(Br)cc2)CC1", "inhibition": "-7.83%"}, {"smiles": "COc1cc2c(cc1OC)C(COc1ccccc1OC)N(C(=O)c1ccc(S(=O)(=O)N3CCCC3)cc1)CC2", "note": "(stereo not drawn)", "inhibition": "-16.3%"}, {"smiles": "Cc1cc(C)nc(/N=C(\\N)Nc2ccc(OCc3ccccc3)cc2)n1", "inhibition": "active: 69.8%"}, {"smiles": "O=C(Cn1ncc2c3ccccc3n(Cc3ccc(F)cc3)c2c1=O)NC1CCCCCC1", "inhibition": "6.9%"}, {"smiles": "CCOC(=O)c1cc(-c2ccccc2)n(-c2cccc(C(=O)NC(C)CC)c2)c1C", "note": "(stereo not drawn)", "inhibition": "-27.5%"}, {"smiles": "Cc1ccc(N(C)S(=O)(=O)c2ccc(-c3cnc(C4CC4)o3)cc2)cc1", "inhibition": "-4.76%"}]}]}
